Results reported in the supplement of paper PMC3334620.
The full ranking holds about 33,000 sequences; the median of “E-score (-0.5 to 0.5)” is about -0.012, and the highest 2% start at about 0.27. This is one part of the list.

These sequences were tested against T1, Vhr1 (UniProt P40522) (assay: PBM E-score (8-mer binding enrichment) (E-score (-0.5 to 0.5)); higher = stronger / more preferred TF binding; most listed sequences are background and not binding sites). Conditions: protein concentration: 200 nM; construct: GST-full length.
T1 sequence: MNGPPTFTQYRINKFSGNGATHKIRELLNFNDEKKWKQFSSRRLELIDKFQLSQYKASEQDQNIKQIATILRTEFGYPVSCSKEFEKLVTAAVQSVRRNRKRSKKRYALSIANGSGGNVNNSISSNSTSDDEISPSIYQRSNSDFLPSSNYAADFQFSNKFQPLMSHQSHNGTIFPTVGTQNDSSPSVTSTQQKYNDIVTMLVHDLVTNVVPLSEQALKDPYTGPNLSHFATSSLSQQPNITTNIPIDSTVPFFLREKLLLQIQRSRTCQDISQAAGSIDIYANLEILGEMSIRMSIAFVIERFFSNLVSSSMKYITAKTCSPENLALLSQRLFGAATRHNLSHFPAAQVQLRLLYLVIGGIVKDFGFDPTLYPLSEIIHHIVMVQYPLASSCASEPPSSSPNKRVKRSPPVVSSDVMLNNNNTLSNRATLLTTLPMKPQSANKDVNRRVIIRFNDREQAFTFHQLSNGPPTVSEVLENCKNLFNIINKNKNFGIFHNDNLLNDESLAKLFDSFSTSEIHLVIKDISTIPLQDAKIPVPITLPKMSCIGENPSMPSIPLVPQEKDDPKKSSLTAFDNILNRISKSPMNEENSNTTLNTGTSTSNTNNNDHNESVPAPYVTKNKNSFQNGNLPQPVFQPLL
Method in brief: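 PURExpress in vitro transcription/translation supplied GST-tagged yeast transcription factors, either full-length or DNA-binding domain. Applied at about 100-200 nM to universal all-10-mer Agilent arrays double-stranded by primer extension, the bound protein was detected with fluorescent anti-GST. E-scores, modified Wilcoxon-Mann-Whitney statistics, were given by the Universal PBM Analysis Suite to ungapped eight-base words pooled with their reverse complements after masliner normalisation.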

Row | Sequence | PBM E-score
1 | TTAGCGAA | -0.208
2 | CGGCTCGC | 0.0809
3 | CAATTCCA | -0.0605
4 | CGTTATGC | -0.199
5 | CTTACTGA | -0.228
6 | ATCTACAC | 0.161
7 | CCCGATAG | -0.0297
8 | ACTTTGTA | 0.0254
9 | CGGCCTAC | 0.0415
10 | GAAGTAGA | -0.0945
11 | ACAAGCAT | 0.214
12 | ATGCTGAC | 0.206
13 | CGATGCTC | 0.0625
14 | TCACTGCA | 0.208
15 | TAAACGGA | -0.0637
16 | AGCCACAG | -0.233
17 | CCCCTACC | 0.0338
18 | ACAAAAAG | -0.137
19 | ACAATTTG | -0.138
20 | AAACTGTA | -0.0153
21 | GGTGGGGA | 0.378
22 | AGTGTAAT | 0.047
23 | CACTAAAC | 0.147
24 | AAACGGCG | 0.157
25 | CCGGGCGA | -0.0669

Row | Sequence | PBM E-score
26 | AAACCGAG | -0.0646
27 | ATGACACG | 0.187
28 | AGCGTCGC | -0.0775
29 | AGGACGGA | -0.0319
30 | GCATAATA | 0.129
31 | AAGCAGGG | -0.188
32 | ACTACAGC | 0.068
33 | CTGTCCAC | -0.158
34 | AAATATAA | 0.0163
35 | CCACGAGG | 0.0379
36 | ATGCCCGC | 0.156
37 | CACATGAG | 0.065
38 | CAACTACC | 0.0623
39 | CGAGCGCA | -0.0455
40 | TAGACGCA | -0.2
41 | ACTTAAAC | -0.133
42 | GCCAGCAC | -0.0902
43 | TCCGGAAA | -0.206
44 | CGCACCCG | 0.11
45 | TCGACGAA | -0.0551
46 | GTTAGGAA | -0.0657
47 | AGGGCAAA | -0.153
48 | GCGCAAAC | 0.12
49 | GCTGCAAC | 0.0689
50 | ATGTGTTC | 0.104

Row | Sequence | PBM E-score
51 | AGCGAGGA | -0.127
52 | CATGAAAG | -0.0898
53 | CATACGGA | 0.1
54 | CCGGGCGC | -0.0589
55 | CACTTTAG | 0.0417
56 | ATTGAGAC | 0.18
57 | GGATGTAA | 0.118
58 | GGATTCTA | 0.115
59 | CTCGTAGC | 0.134
60 | ATCTGTTC | -0.0855
61 | GCAGAGGC | -0.0359
62 | AAATAACG | -0.00647
63 | ATCGCCTG | 0.202
64 | CGGGCGAG | 0.103
65 | AGACGCAA | 0.172
66 | GGGCAGAA | 0.172
67 | GAGCGTGC | 0.0546
68 | AGCAGATC | 0.0967
69 | ATATTTGC | 0.00721
70 | ATCGCAGG | 0.0408
71 | TGTTGGAA | 0.0714
72 | CATGCCCC | 0.0598
73 | AACACGCA | -0.0949
74 | CGTCTCCC | -0.161
75 | AGACTTGA | -0.0302

Row | Sequence | PBM E-score
76 | GCATGCGC | 0.037
77 | AGTACAAT | 0.162
78 | CCGAAATC | -0.0397
79 | CGTCTTAC | -0.178
80 | CCCTTACG | -0.269
81 | TGTGCAAA | -0.243
82 | CATATCTA | 0.253
83 | AGCGGGTA | 0.0529
84 | GGCTCAAC | -0.199
85 | TCCTCAGA | -0.26
86 | CGCGCAAG | 0.221
87 | CAACAACC | -0.01
88 | CTAAGTTA | -0.0897
89 | AAGATCAT | 0.0182
90 | CCTCTGAC | 0.128
91 | CGAGCCAC | -0.00024
92 | CCGAATAA | -0.0769
93 | CCACAAAG | 0.0507
94 | ACCCACAT | 0.271
95 | GTACGCTA | -0.0119
96 | ACAGAAGA | -0.112
97 | ACGGTGTG | -0.0437
98 | ACATTTTG | -0.0763
99 | CTGTCTTA | -0.177
100 | AGACACGG | 0.148

Row | Sequence | PBM E-score
101 | CGACTAGC | 0.111
102 | ATGCCCCA | 0.00289
103 | CAAGGAGG | -0.143
104 | AGAATCCG | 0.0279
105 | AATCTTCT | 0.122
106 | TCGGGAGA | -0.107
107 | CTGTGACA | 0.132
108 | ATAGACGC | -0.0084
109 | CCGCTGCA | 0.0124
110 | ATCAGGAA | 0.0718
111 | CTGCGAAG | -0.193
112 | AACAGAGC | 0.0551
113 | AACATCTG | -0.249
114 | AGCCGAGA | 0.0426
115 | GGCACCCC | -0.0744
116 | GCTATAGC | -0.43
117 | AAGCTAGG | -0.037
118 | CCCCAGTC | -0.0712
119 | CAGCAATA | -0.0124
120 | AGGGCTTC | -0.123
121 | ATCAAGAT | -0.029
122 | GGCCGATA | -0.246
123 | ACCTATCG | 0.0733
124 | TTCACGAA | -0.128
125 | ATGGCTTA | 0.0442

Row | Sequence | PBM E-score
126 | TACTTTAA | -0.104
127 | ACAAGGGG | -0.24
128 | CAGGCCCC | -0.288
129 | CCAATATA | -0.0864
130 | CATTCCGG | -0.0365
131 | GCCATTAC | 0.0967
132 | GATTTAAA | -0.192
133 | CGTCTTGC | -0.108
134 | GCTTGTTA | -0.149
135 | GCCCTTTA | -0.296
136 | AATAAGCT | -0.126
137 | ACCACCAT | 0.246
138 | CGGAACCA | 0.343
139 | CGGCCCAA | 0.024
140 | ATTGATGA | 0.0368
141 | GACTAGCC | -0.074
142 | ACCGCGAG | 0.166
143 | TTAGTAAA | -0.0123
144 | AGGGGATG | -0.0735
145 | AAGTAGGC | -0.0906
146 | AGATGCCG | 0.0534
147 | ACGATGGA | 0.119
148 | AGCATAGG | -0.027
149 | CGGATATC | 0.109
150 | ATAGTCGA | 0.129

Row | Sequence | PBM E-score
151 | ACACTAGA | -0.0837
152 | CCCATGCA | 0.0934
153 | TCTATAAA | -0.0823
154 | CATCTTAC | -0.17
155 | ACAACTAT | 0.0546
156 | GCTATCCA | 0.0732
157 | GCGGCAAC | 0.0844
158 | ACATGCGA | -0.0174
159 | CGTTAGAG | -0.188
160 | ATGTGGTA | 0.181
161 | GCGAGAGA | -0.0678
162 | ACTGATCT | 0.126
163 | GAGGACAC | -0.0901
164 | ACCTCCAC | 0.0905
165 | CCCTTTTA | -0.188
166 | GCCATACC | -0.0635
167 | CGGACTAG | -0.0809
168 | TCGTCAGA | -0.097
169 | AGGATAGG | 0.0866
170 | GAGTTATA | 0.08
171 | GGCGAGGA | -0.0974
172 | CCCTTGCC | 0.0782
